Assay results: the antibiotic and cytotoxicity screens of Wong et al. (2023)
The other results are listed elsewhere or left out.

How the values were obtained:
[1] = test system: HSkMC (human skeletal muscle cells); experiment: cytotoxicity call (relative viability < 0.9); conditions: 10 µM
[2] = test system: HepG2; experiment: cytotoxicity call (relative viability < 0.9); conditions: 10 µM
[3] = test system: S. aureus RN4220; experiment: growth inhibition call (relative growth <= 0.2); conditions: 50 µM

Structure (SMILES)	cytotoxicity call [1]	cytotoxicity call [2]	growth inhibition call [3]
CO[C@H]1CN(C)C(=O)c2cc(NC(=O)CC(F)(F)F)ccc2OC[C@@H](C)N(S(=O)(=O)c2cn(C)cn2)C[C@H]1C	inactive	inactive	inactive
O=C(O)c1ccc(S(=O)(=O)N(Cl)Cl)cc1	inactive	inactive	inactive
Cn1cnc(S(=O)(=O)N[C@H]2CC[C@H](CC(=O)N3CCN(c4ccccc4)CC3)O[C@@H]2CO)c1	inactive	inactive	inactive
O=c1n(C[C@H]2CO2)c(=O)n(C[C@H]2CO2)c(=O)n1C[C@H]1CO1	inactive	inactive	inactive
C[C@H]1CN([C@@H](C)CO)C(=O)Cc2cc(NS(=O)(=O)c3ccc(Cl)cc3)ccc2O[C@@H]1CN(C)C(=O)Nc1ccc(C(F)(F)F)cc1	inactive	inactive	inactive
CO[C@H]1CN(C)C(=O)c2cc(NS(C)(=O)=O)ccc2OC[C@@H](C)N(C(=O)C2CCOCC2)C[C@H]1C	inactive	inactive	inactive
C[C@@H]1CCCCO[C@@H](CN(C)CC2CCCCC2)[C@@H](C)CN([C@H](C)CO)C(=O)c2cc(NS(=O)(=O)c3ccc(F)cc3)ccc2O1	inactive	active	inactive
CNC(=O)CN1CC[C@]12CCN(C(=O)c1ccn(C)n1)C2	inactive	inactive	inactive
C[C@@H]1CN([C@@H](C)CO)C(=O)c2cc(NC(=O)Nc3ccccc3)ccc2O[C@@H](C)CCCCO[C@H]1CN(C)C(=O)Nc1ccccc1	inactive	inactive	inactive
C[C@H](CO)N1C[C@H](C)[C@@H](CN(C)Cc2ccncc2)Oc2ccc(NS(=O)(=O)c3ccc(F)cc3)cc2CC1=O	inactive	inactive	inactive
COc1ccc([Si](C)(C)[C@H]2[C@H](CC(=O)N3CCC[C@H]3CO)O[C@@]3(C(=O)N(Cc4cccc(N5CCCCC5=O)c4)c4ccccc43)[C@@H]2C)cc1	inactive	inactive	inactive
Cc1ccc(S(=O)(=O)N(C)C[C@@H]2Oc3ncc(-c4ccncc4)cc3C(=O)N([C@@H](C)CO)C[C@@H]2C)cc1	inactive	inactive	inactive
C[C@@H]1CCCCO[C@H](CN(C)CC2CCCCC2)[C@H](C)CN([C@@H](C)CO)C(=O)c2cc(NC(=O)Nc3ccc4c(c3)OCO4)ccc2O1	inactive	active	inactive
C[C@@H]1CN([C@H](C)CO)C(=O)c2cc(NC(=O)Nc3ccc4c(c3)OCO4)ccc2O[C@@H](C)CCCCO[C@H]1CN(C)Cc1ccncc1	inactive	inactive	inactive
C[C@@H]1CN([C@H](C)CO)C(=O)Cc2cc(NC(=O)Cn3cnnn3)ccc2O[C@H]1CN(C)S(=O)(=O)c1cn(C)cn1	inactive	inactive	inactive
C[C@@H]1CN([C@H](C)CO)C(=O)c2cccc(NC(=O)CCCCCC(=O)Nc3ccccc3N)c2O[C@@H]1CN(C)C(=O)Nc1ccc(F)cc1	inactive	inactive	inactive
C[C@@H]1CCCCO[C@@H](CN(C)S(=O)(=O)c2ccc(F)cc2)[C@H](C)CN([C@H](C)CO)C(=O)c2cc(NC(=O)Nc3cccc4ccccc34)ccc2O1	inactive	inactive	inactive
Cc1noc(C)c1S(=O)(=O)Nc1cccc2c1O[C@@H](CN(C)Cc1ccccc1)[C@@H](C)CN([C@@H](C)CO)C2=O	inactive	inactive	inactive
Cc1cc(C(=O)Nc2cccc3c2O[C@@H](CN(C)S(=O)(=O)c2c(C)noc2C)[C@@H](C)CN([C@@H](C)CO)C3=O)n(C)n1	inactive	inactive	inactive
C[C@@H]1CN([C@H](C)CO)C(=O)Cc2cc(NC(=O)CCCCCC(=O)Nc3ccccc3N)ccc2O[C@@H]1CN(C)C(=O)Nc1ccc(C(F)(F)F)cc1	inactive	inactive	inactive
CO[C@@H]1CN(C)C(=O)c2cc(NS(C)(=O)=O)ccc2OC[C@@H](C)N(C(=O)CN(C)C)C[C@H]1C	inactive	inactive	inactive
CC(=O)N[C@H]1CC[C@H](CCNC(=O)C2CC2)O[C@H]1CO	inactive	inactive	inactive
C[C@@H]1CN([C@@H](C)CO)C(=O)c2cc(NS(=O)(=O)c3cn(C)cn3)ccc2O[C@H]1CN(C)C(=O)Nc1ccccc1	inactive	inactive	inactive
Cc1noc(C)c1NC(=O)Nc1ccc2c(c1)CC(=O)N([C@@H](C)CO)C[C@@H](C)[C@H](CN(C)S(=O)(=O)c1cccs1)O2	inactive	inactive	inactive
